Results on 40 compounds are retold here after PubChem BioAssay (NCATS).

“And” between values parts separate entries of the source, which are not always exact repeats. Identical values can stand only once. The list shows a part of the results. The main result of the screen is listed elsewhere. These columns were measured beside it and carry no call. Most of these compounds were active or inconclusive in the main read-out, so they are no random draw.

A short description of this assay: qHTS Assay for Lipid Storage Modulators (AID 1519). Particulars: Drosophila S3 cells, BODIPY lipid droplet/cell ratio, laser cytometry; measured here: lipid channel max response; cells loaded with oleic acid. Put shortly:
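Cells seeded at 5,000 per well were treated with compounds over a concentration series and loaded with oleic acid (400 uM, as added). Lipid droplet fluorescence (488 nm excitation, 500-530 nm channel) was read by laser-scanning cytometry and normalized to 20 uM Triacsin C.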
As to `COc1cccc(-c2nc(NCc3cccs3)c3ccccc3n2)c1`, the max response turned out to be 34%.

For the compound `COc1ccc(CNc2cc(-c3cccnc3)ncn2)c(OC)c1`, the max response came to 29.8%.

As to `CN(C)c1ccc(-c2cncnc2NCCc2cnc[nH]2)cc1`, the max response was found to be 41.8%. The same measure for `NC[C@@H]1O[C@H](c2ccccc2)Cc2c1ccc(O)c2O`: 83.8%; for `O=c1c(O)c(-c2cccc(O)c2)oc2ccccc12`: 23.3%; for `CCNc1ncc2nc(C)c(=O)n(Cc3cccc(OC)c3)c2n1`: 27.8%.

For the compound `COc1ccc(-n2c(=O)c(-c3ccc(F)cc3)nc3cncnc32)cc1`, the max response was determined as 46.9%. The figure for `CN(C)c1ccc(-c2cncnc2Nc2ccccc2)cc1` is 32.2%; for `COc1ncc2nc(CCc3ccccc3)c(=O)n(-c3ccccc3)c2n1` it is 39.8%. For `Cc1ccccc1-c1nccc(NCc2cccnc2)n1`, the max response turned out to be 27.7%. As for `N#CCCn1c(=O)c(CCc2ccccc2)nc2cnc(OCc3ccccc3)nc21`, the max response was determined as 33.3%.

As to `CNc1ncncc1-c1ccccc1C(F)(F)F`, the max response is 46.6%. The figure for `O=c1c(-c2cccs2)nc2cncnc2n1-c1ccccc1` is 37.9%; for `COC(=O)C1=C(C)NC(C)=C(C(=O)OCCSc2ccccc2)[C@@H]1C` it is 1.49%. The same measure for `COCCn1c(=O)c(-c2ccc(F)cc2)nc2cnc(N(C)C)nc21`: 30.4%; for `COc1cc2c(cc1OC)C(=O)Cc1ccc3c(c1CN(C)CC2)OCO3`: 99.9%. As for `c1cncc(-c2nc(-n3ccnc3)c3ccccc3n2)c1`, the max response worked out at 32.3%. The same measure for `Oc1ccc(/C=C\c2cc(O)cc(O)c2)cc1`: 88.9%; for `COc1cccc(-c2ccc3ncnc(N(C)C)c3c2)c1`: -5.81%; for `COc1cc2ccc(=O)oc2c(O)c1OCC=C(C)C`: 73.8%. On to `O=c1c(-c2cc(F)cc(F)c2)nc2cncnc2n1Cc1ccccc1Cl`, for which the max response worked out at 35.8%.

For `Cc1ccccc1-c1nccc(Nc2ccc(F)cc2)n1`, the max response worked out at 10.9%.

For the compound `CC#CCOC(=O)C1=CCCN(C)C1`, the max response is 4.84%.

As to `COc1ccc(-c2cc(=O)c3cc(OC)ccc3o2)cc1`, the max response came to 56%.

In the case of `C=C(CO)C1Cc2c(ccc3c2OC2COc4cc(OC)c(OC)cc4C2C3=O)O1` (stereo not given), the max response is -60.5%. The same measure for `Clc1ccccc1-c1nc(NCCN2CCOCC2)c2ccccc2n1`: 48.8%; for `c1ccc(-c2csc(-c3nc4ccccc4[nH]3)n2)cc1`: 15.6%; for `CCc1ccc2c(-c3cccc(Cl)c3)nc(=O)n(CC)c2n1`: 160%. The same measure for `O=C(O)c1cccnc1C(=O)O`: 31.2% and 22.8%; for `CN(C)C(=O)c1ccc(-c2cncnc2-n2ccnc2)cc1`: 41.6%. For the compound `O=c1c(-c2ccc(Cl)cc2)nc2cnc(Nc3ccccc3)nc2n1C[C@H]1CCCO1`, the max response is -65.1%.

As for `COc1ccccc1N1CCN(CCN2C(=O)CC3(CCCC3)CC2=O)CC1`, the max response was 84.4% and 75.1%. With `Fc1ccc(Nc2nc(-c3ccoc3)nc3ccccc23)cc1`, the max response came to 0.696%. The figure for `COc1ccccc1-c1nc(N2CCOCC2)c2ccccc2n1` is 39.6%. Regarding `CC[N+](CC)(CC)CC(=O)Nc1c(C)cccc1C`, the max response worked out at 57.6%.

Take `c1ccc(Nc2nc(-c3ccoc3)nc3ccccc23)cc1`: the max response worked out at 36.3%. Turning to `CC(C(=O)O)c1ccc2c(c1)[nH]c1ccc(Cl)cc12` (stereo not given), the max response worked out at 55.5%. For `CN(C)C/C=C(\c1ccc(Br)cc1)c1cccnc1`, the max response amounted to 81.3%. In the case of `N#CCCn1c(=O)c(CCc2ccccc2)nc2cnc(Oc3ccccc3)nc21`, the max response stood at 36.5%. On to `CN(C)c1ccc(-c2nccc(NCc3cccs3)n2)cc1`, for which the max response is -59.8%.
